Measured values from the supplement of paper PMC3334620.
Whole data set: some 33,000 sequences, median “E-score (-0.5 to 0.5)” near -0.01, cut for the highest 2% near 0.26. The list shows a part of the results.

target: Ste12 (UniProt P13574); assay: PBM E-score (8-mer binding enrichment) (E-score (-0.5 to 0.5)); higher = stronger / more preferred TF binding; most listed sequences are background and not binding sites; settings: protein concentration: 200 nM; construct: GST-DNA-binding domain
How it was run: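 Each ungapped eight-base word and its reverse complement, pooled, received an E-score from the Universal PBM Analysis Suite. Underlying scans, normalised with masliner, recorded fluorescent anti-GST bound to GST-tagged yeast transcription factors. These were applied at about 100-200 nM to universal all-10-mer Agilent arrays double-stranded by primer extension.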

Sequence	PBM E-score
CTTCTTGA	0.0821
CTTTACAA	0.204
CTATCACC	-0.0719
AGATCCCA	-0.16
AGACGCTC	-0.143
AAGGCTCC	-0.123
CCGACCCC	-0.0867
AACGAACG	0.0641
CTTGTCTA	0.0321
AAATACGT	0.142
CTCTGCGA	0.0178
CTCGTTAC	-0.175
TATGTCGA	0.00893
AGATTGTC	-0.0744
GGAGTCAA	0.0563
GGCGAATA	-0.0412
GCACTAAA	0.0115
GTTAACGA	0.0151
CAGCTGGA	-0.092
ACTGGACG	-0.136
ACCAGAGA	0.00409
GATGATCA	0.0307
GCCATACA	0.132
ACTAATCG	0.103

Sequence	PBM E-score
GAGCACGA	0.124
CGCGCTAG	0.0824
ATCCACAC	-0.0961
TACTTCCA	0.0198
AAGTGTCG	0.093
CGTCGGTC	0.133
TAGGTTCA	0.0464
CCCCTTGA	0.0534
AGCTAGAT	0.0137
ATAGGAGA	-0.063
GGCCGTAA	-0.0729
CGGCATGC	-0.026
AGAATGCA	0.0948
CCGGAATA	0.0345
GTTAAGCA	-0.115
GCAGACAC	0.00338
ATCAAATG	0.123
GTTAGCTA	0.0536
AATGTAAA	0.269
GTGGTTAA	0.176
GCGGGGAC	0.191
CGTCGTGC	0.056
AGGTATAA	0.0586
TGCCTACA	-0.157

Sequence	PBM E-score
ACTAGGGG	-0.154
AATCATCT	-0.0762
AGATCGTG	0.0231
AAGGCCCA	-0.0384
CACGCATG	-0.072
CCTGGTCA	-0.016
ATATGCTC	0.0529
ATACGCAT	0.067
TTCTGCAA	0.182
ACCTAGTA	-0.316
AAGATAAG	0.0214
CACGGCGG	0.00072
CTATACGA	-0.125
ACCTATCA	-0.0625
CTGAGTCA	0.0791
AACCAAGT	0.00958
ATGTGACC	-0.00543
ATGAGAGA	0.00143
GGGCTGTA	-0.0896
TACCGGTA	-0.0278
AGACGATA	-0.051
AATGCGGA	-0.0654
GGCCTTAA	0.0816
TCTGCCAA	-0.0109

Sequence	PBM E-score
AAGCAGGA	0.0216
CCATATGG	-0.134
GGTCCCAA	0.018
CGACTGGA	0.0606
AGACCTGC	-0.0444
AACCGAAA	0.164
AAGACTTA	-0.0841
AGTCTGCC	-0.171
CCCCCAGC	-0.262
CATACCGA	-0.0873
GAAATTCC	-0.104
ATGGTAAG	0.0141
ACCTACAA	0.0183
CTCGACTC	-0.0794
GCGGACGC	-0.0691
CCCATTGC	-0.00318
CAAACATC	0.192
AAATAGTT	0.0872
AACGCGCC	-0.0769
ACAGGTAC	-0.0471
TATCAGGA	0.135
GAACGATC	-0.0508
TCACTGGA	-0.0212
CTACCCGC	-0.0854

Sequence	PBM E-score
CCTCCCGA	-0.129
GTCTGTAA	0.261
ATCACTGC	-0.0595
CGCCTCCA	-0.0513
ACAGTTCA	0.0125
GGATGGAC	-0.108
CATTCTGA	0.0007
GCGCTCAA	-0.258
CACCCTAA	0.0846
CTGCCAAC	-0.1
ACTTAGGC	-0.151
ACCCCGTC	-0.0261
TAAATGAA	0.185
GGCCCAAC	-0.145
GCTCTGAC	-0.0116
ACCACATG	0.039
CCGGAACA	0.0655
ACGGCCAG	-0.177
AAAGTCAA	0.189
AGTTAAAC	0.00327
AACCATGC	0.0898
AGTCCAGG	-0.207
AACAAGAT	0.0602
CAACCGCG	0.0561

Sequence	PBM E-score
CGATGCAC	-0.194
CTATCTAA	0.0807
GCAGGCAA	-0.137
AAATCAAT	0.071
CGGCCCCG	0.0097
AGGGTTAC	-0.237
CCTTATTC	-0.101
ACAACGTA	-0.201
ACACCGCC	-0.0092
AGAACGGG	-0.0677
CTGAAAAA	0.0763
GATCACAC	-0.145
GCTGTCAC	-0.0491
CGGTTCCA	0.0407
AGGGTTTC	0.114
CACTCTAG	-0.189
CCCGGAGG	-0.114
AAACCACG	-0.0476
CCCGAGAC	-0.0713
GAAATTGC	0.0231
GGTTACAC	-0.0834
ACCTGCAC	-0.0342
CATATCGC	0.0108
GGGGGAAC	-0.182

Sequence	PBM E-score
GAGTTGGA	0.0912
GACATCCA	0.023
GCCAATCA	-0.122
GAGGCAGC	-0.136
CGGTGGTA	-0.0749
GTAGGTCA	-0.217
ACACTCGC	0.154
CGCTAAGC	-0.152
AGGACTGA	-0.158
AGTCATTA	-0.227
ACAGAGAC	0.0205
GTATGGGA	-0.19
CGTGATAC	0.0317
AATGCGGC	0.0831
GGATCTCA	-0.271
ATCAGATG	-0.0233
GAACCCAA	-0.0682
CCTCCCTC	0.173
GCAACTCC	-0.151
ATTTGACG	0.109
CGTTTTAC	0.199
CCACCAGG	-0.219
AGTAGGGC	-0.0895
ACCCTTTG	0.0136

Sequence	PBM E-score
TAGTTCGA	0.115
AACGGGAT	0.108
CTATAAAC	0.113
CTACGCCC	-0.0276
CTTAGGGC	-0.0561
CAGTACGA	0.0913
CTAGATTA	-0.0366
ACCGAAAC	0.194
TCCAACGA	-0.145
ATGGTAGG	-0.123
ATTGTGCC	-0.0274
CAAAGTCG	0.0234
AGTGGTAG	-0.153
GCGCGAAC	0.0211
AGTCATGA	-0.0513
CTCCGTAC	-0.0963
CGATAAAG	-0.0154
ACACGCTA	0.00885
GCGACTTA	-0.128
CCTGTCTC	-0.116
AAGTGCAC	-0.0265
AATAATAC	0.198
CAATGTAG	-0.0151
GACGTAGA	-0.136
